Data from the RNAGym collection of RNA variant scans (doi:10.7554/elife.90254).
Read counts are not given, so values of variants with three or more changes are uncertain.

B1: LINE1-mini (parent)
chain: GGCAGAGCUCAACACAGCGUGGCAAAGUGGCUGUGGCUAGACUGCC

Variants of: B1
Test: self-cleavage, relative activity (ratio to wild type); higher = more cleavage; in vitro, sequencing; the parent is a self-cleaving ribozyme
Variant A4U U32C G33A U34G G35A has a self-cleavage of 0.04.
A4U G29C G35A showed a self-cleavage of 0.05.
In the case of A4U C31A C42U, the self-cleavage is reported as 0.43.
With A4U C15U U43C the self-cleavage was 0.03.
For A4U G17C C23G G35C G36C C37U U38G, the self-cleavage was 0.02.
A4U U9A C10A G21U G30A C46A gave a self-cleavage of 0.03.
Variant G5A A6U C18U G19A has a self-cleavage of 0.05.
With G5A A6C G36U the self-cleavage was 0.98.
With A4U G7C G30U C45A the self-cleavage was 0.13.
For A4U C15G G29U, the self-cleavage was 0.05.
Work on G5A A6G C15U G21C G40U A41G yielded a self-cleavage of 0.07.
A4U G27C U32G gave a self-cleavage of 0.02.
A4U C15A G17C showed a self-cleavage of 0.06.
Variant A4U G5U A24C has a self-cleavage of 0.03.
For A4U G21C C42U, the self-cleavage was 0.05.
G5A A11U G21U gave a self-cleavage of 0.01.
G5A A11C C18U G35U C45A C46U gave a self-cleavage of 0.
Work on A4U G19A G21A C46A yielded a self-cleavage of 0.3.
With A4U U38G A39U G44C the self-cleavage was 0.07.
In the case of G5A A11U G19A G36U A39G, the self-cleavage is reported as 0.
Variant A4U G7U A14C has a self-cleavage of 0.
A4U C13U G35U gave a self-cleavage of 0.09.
Work on A4U C18A G19C G21U yielded a self-cleavage of 0.36.
Work on G5A A11G U20C yielded a self-cleavage of 0.03.
Work on A4U C18U A41C yielded a self-cleavage of 0.07.
Work on A4U G22U U38C yielded a self-cleavage of 0.22.
For A4U C15G A16C, the self-cleavage was 0.28.
With A4U G5U C37G the self-cleavage was 0.03.
In the case of A4U C10U A12U C23U, the self-cleavage is reported as 0.08.
With A4U G21U A41U the self-cleavage was 0.12.
In the case of A4U G29A C45G, the self-cleavage is reported as 0.04.
Work on A4U G5C A14G G22C C23U A24G U32G yielded a self-cleavage of 0.03.
Work on A4U G21C A26U yielded a self-cleavage of 0.09.
With A4U C15U G40C the self-cleavage was 0.02.
In the case of A4U G17A A39G, the self-cleavage is reported as 0.04.
Variant G5A A11G C13A U38G has a self-cleavage of 0.03.
A4U G5A G19A A39C C45U showed a self-cleavage of 0.38.
In the case of A4U C10A G17C A24G G29U, the self-cleavage is reported as 0.03.
Variant A4U C13U C15A U20A A24U G29A has a self-cleavage of 0.02.
With G5A A6C U9C G36A A39U the self-cleavage was 0.03.
With A4U G5C C15A C42G the self-cleavage was 0.03.
With A4U U32A C45U the self-cleavage was 0.02.
With A4U U20A A26G C46U the self-cleavage was 0.02.
Variant A4U G5C A6U C13U has a self-cleavage of 0.12.
Variant A4U G19C G21A A24U has a self-cleavage of 0.03.
In the case of A4U G22U C31A A41U, the self-cleavage is reported as 0.06.
A4U G21U G29A C37G gave a self-cleavage of 0.02.
Variant A4U G27A G36A has a self-cleavage of 0.09.
With A4U G27A G36U the self-cleavage was 0.02.
A4U C15U A16C C18A U28A G40A gave a self-cleavage of 0.07.
For A4U C23A C37U G40A, the self-cleavage was 0.03.
With A4U U28G C42U the self-cleavage was 0.05.
A4U G7C A11U A16C G19U G29C G33A showed a self-cleavage of 0.01.
For A4U G5C A14C G22U, the self-cleavage was 0.06.
With A4U U9G A16C G19A the self-cleavage was 0.01.
Work on A4U G5A G7A U43A yielded a self-cleavage of 0.12.
With A4U G27A U34A U38A U43C G44A the self-cleavage was 0.04.
For A4U G21U C45U, the self-cleavage was 0.12.
In the case of A4U G22A A25U, the self-cleavage is reported as 0.14.
In the case of A4U C37U A41U C46A, the self-cleavage is reported as 0.02.
Work on A4U G29C C37A yielded a self-cleavage of 0.02.
For A4U G19C G29U G33C, the self-cleavage was 0.06.
In the case of A4U G5U G21C U32G, the self-cleavage is reported as 0.12.
In the case of A4U C13U U38C C46U, the self-cleavage is reported as 0.05.
With A4U C15U U28C G33A A41C C46U the self-cleavage was 0.03.
Variant A4U U20C C37U has a self-cleavage of 0.07.
A4U G7U C46G gave a self-cleavage of 0.15.
For G5A A6C G19U C37G C45U, the self-cleavage was 0.02.
Variant A4U U9C G19A U20G U32G U34A G36A G40A has a self-cleavage of 0.
In the case of G5A A6U C8G G27U, the self-cleavage is reported as 0.06.
With A4U G21C A39C G40U the self-cleavage was 0.06.
A4U G7C C13U gave a self-cleavage of 0.11.
For A4U C15G G36A C37A C45U, the self-cleavage was 0.02.
Work on A4U C10G C13U yielded a self-cleavage of 0.02.
With A4U G27U G44U the self-cleavage was 0.13.
Variant A4U C23G U43A has a self-cleavage of 0.55.
In the case of A4U G5U C31A, the self-cleavage is reported as 0.04.
A4U U9G A24G showed a self-cleavage of 0.27.
Work on G5A A6G G29C G44C yielded a self-cleavage of 0.
Work on G5A A11G G17C C18U U20G yielded a self-cleavage of 0.03.
In the case of A4U U28G G40C, the self-cleavage is reported as 0.04.
Variant G5A A6G U20G G36A has a self-cleavage of 1.88.
In the case of A4U C10G G17U G27U G40U, the self-cleavage is reported as 0.03.
A4U C10G A25G A41U showed a self-cleavage of 0.
With G5A A6C C13A G22C A26G the self-cleavage was 0.04.
Variant G5A A6U A12U C23A G44U has a self-cleavage of 0.07.
Work on A4U U9G G21U yielded a self-cleavage of 0.11.
A4U G19C G21C showed a self-cleavage of 0.16.
A4U G5A A24G G44U gave a self-cleavage of 0.12.
Variant A4U U20G G27A has a self-cleavage of 0.08.
Work on A4U C13G G35U yielded a self-cleavage of 0.21.
G5A A6U C8U C23U G27C C37U gave a self-cleavage of 0.19.
For A4U G22A C23U, the self-cleavage was 0.43.
Variant A4U C15U G17A U20A G30A G36C has a self-cleavage of 0.01.
A4U G35U G40A gave a self-cleavage of 0.11.
Variant A4U G35U C37A has a self-cleavage of 0.07.
A4U C10U U43C G44A gave a self-cleavage of 0.06.
For A4U C18U G40U U43C, the self-cleavage was 0.02.
G5A A6C A11C C46A showed a self-cleavage of 0.04.
A4U G27C C31U gave a self-cleavage of 0.03.
In the case of A4U G17A G33A G36C, the self-cleavage is reported as 0.06.
Variant A4U G5U G29C has a self-cleavage of 0.13.
Work on G5A A6U G21U A24G yielded a self-cleavage of 0.15.
For A4U C10A G17A U28G C42U, the self-cleavage was 0.05.
For A4U G35U C46U, the self-cleavage was 0.07.
With A4U U20A C23U A24U A25G the self-cleavage was 0.04.
For A4U G17U G19A G21C U28G, the self-cleavage was 0.03.
Variant A4U C10A G19A G21U G44U has a self-cleavage of 0.04.
Work on A4U U32A C42G yielded a self-cleavage of 0.04.
Work on G5A A11G U28G C46U yielded a self-cleavage of 0.01.
In the case of A4U G17C U20A U28A, the self-cleavage is reported as 0.07.
Work on G5A A11G C42A yielded a self-cleavage of 0.01.
For A4U U9G C23U G40U A41C, the self-cleavage was 0.09.
In the case of A4U G5A C13G, the self-cleavage is reported as 0.09.
G5A A6G U20C U43A gave a self-cleavage of 0.01.
Work on A4U C15A A16C A24G yielded a self-cleavage of 0.05.
Work on A4U G27U G40A yielded a self-cleavage of 0.11.
With A4U G7C A12U C13A G27C G30U the self-cleavage was 2.24.
In the case of G5A A12C G27C C31G, the self-cleavage is reported as 0.
For A4U U9C A14C C18A U20C G22A G35A C37U, the self-cleavage was 0.01.
Variant A4U C18A A41U has a self-cleavage of 0.02.
With A4U U28C G44C the self-cleavage was 0.12.
Variant A4U G7A G19C C23U U43C has a self-cleavage of 0.19.
Variant A4U G19U C23U U43C has a self-cleavage of 0.04.
In the case of A4U G30C A41C, the self-cleavage is reported as 0.04.
With G5A A6C A16U G22C U28G G44U the self-cleavage was 0.04.
For G5A A6G G21U A41G, the self-cleavage was 0.05.
Variant A4U G5A U9A G22A G30A C37A has a self-cleavage of 0.03.
Work on A4U G5U G22U G27U U28C yielded a self-cleavage of 0.13.
With A4U C15U G29U A41U the self-cleavage was 0.
In the case of A4U G17U U20A, the self-cleavage is reported as 0.05.
A4U G5U G17C gave a self-cleavage of 0.06.
A4U G5U A12C C13U C45U showed a self-cleavage of 0.01.
In the case of G5A A6U C42A, the self-cleavage is reported as 0.07.
G5A A12C A24G G40C U43G gave a self-cleavage of 0.01.
With A4U G22C U32C C37U the self-cleavage was 0.01.
With G5A A6U A14G A39G the self-cleavage was 0.07.
A4U C18G C45A showed a self-cleavage of 0.06.
A4U C23G G27A G44C gave a self-cleavage of 0.08.
For A4U C18A A39C G40U, the self-cleavage was 0.02.
A4U C18A A26U G35U C37A showed a self-cleavage of 0.03.
In the case of A4U U32A A41U, the self-cleavage is reported as 0.08.
Work on A4U G22C A24U yielded a self-cleavage of 0.09.
A4U C37G G40U C42A gave a self-cleavage of 0.09.
In the case of A4U C10G A25G G35A, the self-cleavage is reported as 0.02.
Work on G5A A6G G7C C15A G22C U32A yielded a self-cleavage of 0.02.
For G5A A12U C18U G22A G27U, the self-cleavage was 0.02.
With A4U G7C C10A A14C C31G the self-cleavage was 0.04.
In the case of A4U C10A G19C G27U G33U, the self-cleavage is reported as 0.02.
A4U C13A C23A showed a self-cleavage of 0.15.
In the case of A4U C31G G36C C37A C42A, the self-cleavage is reported as 0.02.
Variant A4U U9A G19U G35A has a self-cleavage of 0.08.
A4U C18U G35U C42G showed a self-cleavage of 0.03.
Work on A4U U28G G30U yielded a self-cleavage of 0.03.
Variant A4U G17A C37A has a self-cleavage of 0.03.
For A4U C18U A25C C42U C46U, the self-cleavage was 0.03.
For A4U U9C G17U C42G, the self-cleavage was 0.02.
With G5A A12G C15G G29U the self-cleavage was 0.02.
A4U C13A G21A gave a self-cleavage of 0.14.
Variant A4U G7U C42U has a self-cleavage of 0.03.
Variant G5A A11U C46A has a self-cleavage of 0.02.
A4U C15G G21A G40A showed a self-cleavage of 0.01.
With A4U G17A G22A C45G the self-cleavage was 0.03.
In the case of A4U G21C G36C, the self-cleavage is reported as 0.14.
G5A A6C C15U C31U gave a self-cleavage of 0.01.
Variant A4U C42U G44U has a self-cleavage of 0.05.
With A4U G5U G29C G40C the self-cleavage was 0.05.
